# Measured values reported in PubChem BioAssay AID1671188 (National Center for Advancing Translational Sciences (NCATS), 2021).
# “And” between values parts separate entries of the source, which are not always exact repeats. Equal values may be shown once. The whole screen tested about 100,000 compounds, of which about 250 (0.25%) were called active. Inconclusive results, whose numbers are uncertain, are shown with a selection of clear calls. The call rests on the fitted dose curve; in most records, active means well fitted inhibition curve with a large enough effect; inconclusive means small, poorly fitted or top-dose-only effect; inactive means flat fitted curve, though single readings scatter. Potencies beside an inconclusive call are fits to weak or partial responses and may not hold up.
# Target: Alanine aminotransferase 2 (Homo sapiens) (UniProt Q8TD30)
# Assay: Primary qHTS assay for inhibitors of Glutamate pyruvate transaminase 2 (GPT2); further: nearly all actives have a fitted effect of over 60% in size
# Conditions: Recombinant GPT2, coupled pyruvate oxidase/HRP Amplex Red fluorescence; activity change, negative = inhibition: at 57.7 µM (top of the series) unless noted; series mostly up to 57.7 µM
# Experimental: Assay Provider: Zhenghe John Wang Ph.D.
# Case Western Reserve University, Cleveland OH
# Glutamate pyruvate transaminase 2 (GPT2) catalyzes the reversible transamination of glutamate and pyruvate to provide a-ketoglutarate and alanine. We have optimized an assay for GPT2 enzymatic activity that couples pyruvate formation to detection of fluorescence using an established pyruvate oxidase/horseradish peroxidase / Amplex Red system.
# Screening conditions were 250uM a-KG, 2mM L-alanine, and 10ng/uL GPT2 in […] of solution; 10uL of Amplex reaction mix (outlined below) were added so that final concentrations of Amplex reagents in 50uL were 0.2mM ThPP, 0.2U/mL PO and HRP, and 50uM Amplex.
# NOTE: The volume of GPT2 in the system depends on the activity of it. The activity is different every batch. You need to test the activity before the assay. For full plate assay with automation, plate 20uL of GPT2 buffer to pin into, then add 10uL of GPT2 dilution followed immediately by 10uL of substrate dilution. 2 Columns of the plate were devoted to GPT2 buffer ([…] PH7.5, 0.0001% Tween) + 50uM AOA (known GPT2 inhibitor) to serve as a positive control. Complete the assay as normal. Amplex-red buffer: […] PH7.5, 1 mM EDTA, 1 mM MgCl2.
# 1. Combine a-KG and L-alanine at desired concentrations and incubate for at least 10 minutes at 37C. Stocks of L-alanine and a-KG are diluted in distilled water. However, the stocks were diluted in GPT2 buffer for the assay.
# 2. Prepare GPT2 dilution at the desired concentration in GPT2 buffer.
# 3. Plate 40uL of GPT2 dilution with 40uL of substrate dilution and let incubate for 30 minutes at room temperature.
# 4. Add 20uL of Amplex reaction mix prepared as follows: 1.5uL 200U/mL Horseradish Peroxidase, 200mM Thiamine Pyrophosphate, 200U/mL Pyruvate Oxidase; 7.5uL 10mM Amplex Red; 288uL Amplex Buffer.
# 5. Incubate for 30 minutes at room temperature in the dark, then image using AM_Amplex_Fluorescence on plate reader nearest the window.
# On the % scale 0 is the no-effect control and ±100 the full control effect; potency means the concentration at half of the fitted maximal effect; tags describe the fitted curve by direction and shape.
# UniProt Q8TD30, sequence (Q8TD30 whole entry, looked up): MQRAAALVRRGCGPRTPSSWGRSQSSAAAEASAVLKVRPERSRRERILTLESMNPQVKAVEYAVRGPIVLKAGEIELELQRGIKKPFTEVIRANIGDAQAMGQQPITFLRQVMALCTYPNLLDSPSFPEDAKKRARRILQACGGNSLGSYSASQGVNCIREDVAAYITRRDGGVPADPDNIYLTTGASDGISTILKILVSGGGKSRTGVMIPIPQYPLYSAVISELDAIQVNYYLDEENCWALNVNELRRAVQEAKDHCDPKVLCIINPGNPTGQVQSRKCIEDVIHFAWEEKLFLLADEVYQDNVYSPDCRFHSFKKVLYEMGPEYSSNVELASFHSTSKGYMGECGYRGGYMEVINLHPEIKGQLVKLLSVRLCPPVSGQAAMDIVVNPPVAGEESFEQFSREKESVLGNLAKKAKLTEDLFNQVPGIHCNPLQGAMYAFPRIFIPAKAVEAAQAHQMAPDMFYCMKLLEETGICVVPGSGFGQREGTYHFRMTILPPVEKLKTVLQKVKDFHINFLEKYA
SMILES,Potency,"activity change, negative = inhibition"
COc1cc2c(cc1CNC(=O)[C@H]1CCC[C@@H](O)C1)OCCO2,"inconclusive: 39.8 µM [inhibitor, single point]",
O=C(NCCC1CCN(C(=O)Nc2ccccc2)CC1)c1ccccc1F,"inconclusive: 8.91 µM [inhibitor, single point]",
O=C(c1ccc2ccccc2n1)N1CCc2nnc(CCc3ccccc3)n2CC1,"inconclusive: 6.31 µM [inhibitor, single point]",
COc1ccc(N2CCN(c3ncncc3-c3nc(-c4ccccc4)no3)CC2)cc1,"inconclusive: 17.8 µM [inhibitor, partial curve]",
O=C(COc1ccc(F)cc1)NCC1Cn2cccc2CN1Cc1ccccc1 (stereo unspecified),inactive,
COc1cccc(CNC(=O)c2cc(-c3cccc(C(F)(F)F)c3)c3nncn3n2)c1,"inconclusive: 39.8 µM [inhibitor, single point]",
COCCNc1ncnc2c1CN(c1ccc(C)cc1)C(=O)N(C)C2,inactive,
COc1ccc(S(=O)(=O)N[C@H]2[C@H](O)[C@H](O)C[C@@H]2c2ccc(C(F)(F)F)nc2)cc1,"inconclusive: 17.8 µM [inhibitor, partial curve, poor fit]",
O=C(N1CCC2(CC1)CC(Cc1nc(-c3cccnc3)no1)CCO2)C1(c2ccccc2)CC1 (stereo unspecified),"inconclusive: 39.8 µM [inhibitor, single point]",
Cc1ccccc1S(=O)(=O)N1C[C@@H](Oc2cccnc2)C[C@H]1C(=O)NC1CC1,inactive,
CC1(COc2cccnc2)COc2ccc(C(=O)NCC3CCOCC3)cc2N1 (stereo unspecified),"inconclusive: 8.91 µM [inhibitor, partial curve, poor fit]",
O=P(O)(O)C(O)(Cc1cccnc1)P(=O)(O)O,"inconclusive: 5.62 µM [inhibitor, full curve, poor fit] and inconclusive: 3.55 µM [inhibitor, single point]",
Cc1ccc(-c2cc(N3CCC(CNC(=O)c4n[nH]c5c4CCCC5)CC3)n[nH]2)cc1,"inconclusive: 25.1 µM [inhibitor, partial curve]",
CCc1cccc(NC(=O)N2CCc3c(c4cc(F)ccc4n3C)C2)c1,"inconclusive: 39.8 µM [inhibitor, single point]",
Cn1nccc1C(=O)N1CCC2(CC1)OC(=O)N(Cc1ccccc1)C2(C)c1cccnc1 (stereo unspecified),inactive,
Cn1cc(CN2CC3(COCC(=O)N(Cc4cccc(OC(F)(F)F)c4)C3)C2)cn1,inactive,
COc1ccc(-c2cc(N3CCC(NC(=O)c4ccc(N(C)C)cc4)C3)n[nH]2)cc1 (stereo unspecified),"inconclusive: 12.6 µM [inhibitor, partial curve]",
O=C1Nc2ccccc2C12CCN([S+](=O)([O-])c1ccsc1)CC2,"inconclusive: 35.5 µM [inhibitor, single point]",
CCn1nccc1C(=O)N1CCCCCCNC(=O)[C@@H]2C[C@@H](c3nc(Cc4ccccc4)no3)C[C@@H]21,"inconclusive: 1.78 µM [inhibitor, full curve]",
COc1ccc2[nH]c(C[C@@H]3C[C@@H](C(C)C)[C@H](CNC(=O)c4cccnc4)C=C3C)nc2n1,inactive,
O=C(COc1ccccc1)Nc1ccc([C@@H](O)[C@H]2COCC(=O)N2Cc2ccc(F)cc2)cc1,inactive,

SMILES,Potency,"activity change, negative = inhibition"
CS(=O)(=O)c1ccc(OC[C@H]2C[C@@H](NCc3ccc(F)cc3)[C@H](O)[C@@H]2O)cc1,"inconclusive: 7.08 µM [inhibitor, single point]",
O=C(O)c1cc(O)c(O)c(O)c1,"inconclusive: 3.16 µM [inhibitor, full curve, poor fit]",
O=C(Cc1cccs1)N1CCCN(c2cc(-c3ccc(Br)cc3)[nH]n2)CC1,"inconclusive: 39.8 µM [inhibitor, single point]",
CCN(CC)C(=O)N1CCN(C)CC1,"inconclusive: 39.8 µM [inhibitor, single point]",
CCCCNC(=O)c1cccc2c1CCN2S(=O)(=O)c1ccccc1,"inconclusive: 39.8 µM [inhibitor, single point]",
O=C(c1ccccc1)N1Cc2ccccc2CC2(CCN(Cc3ccccn3)C2)C1 (stereo unspecified),"inconclusive: 14.1 µM [inhibitor, partial curve, poor fit]",
CC(=O)NCCC(=O)N1Cc2ccccc2CC2(CCCN2CC2CCCCC2)C1 (stereo unspecified),"inconclusive: 31.6 µM [inhibitor, single point]",
CCOc1ccc(C2NC(=O)N(CC(=O)N3CCCC3)C3=C2C(=O)OC3)cc1 (stereo unspecified),"inconclusive: 35.5 µM [inhibitor, single point]",
COCC(=O)N[C@H]1C[C@@H](Cc2cc(CN(C)c3ccccc3)on2)C1(C)C,"inconclusive: 10 µM [inhibitor, single point]",
CC[C@]1(O)C[C@@H]2CN(CCc3c([nH]c4ccccc34)[C@@](C(=O)OC)(c3cc4c(cc3OC)N(C)[C@H]3[C@@](O)(C(=O)OC)[C@H](OC(C)=O)[C@]5(CC)C=CCN6CC[C@]43[C@@H]65)C2)C1,"inconclusive: 39.8 µM [inhibitor, single point]",
COc1cccc(CNC(=O)CNC(=O)c2cccc(-c3ccc(SC)cc3)c2)c1,"inconclusive: 39.8 µM [inhibitor, single point]",
Cc1ccc(C2NC(=O)N(CC(=O)NC(C)(C)C)C3=C2C(=O)OC3)cc1 (stereo unspecified),inactive,
COc1cccc(CNC(=O)c2ccc3nnc(-c4ccoc4)n3c2)c1,inactive,
Cc1cc(CS(=O)(=O)c2ccccc2)cc(OCc2ccc(CN3CCC[C@@H]3CO)cc2)c1,"inconclusive: 20 µM [inhibitor, partial curve, poor fit]",
Cc1cc(C)cc(-c2ccc(CN3CCCC(NC(=O)c4ccccc4Cl)C3)cc2)c1 (stereo unspecified),"inconclusive: 12.6 µM [inhibitor, partial curve]",
COc1cccc(CN2CCc3c(cc(C(=O)Nc4cccc(C)c4C)n3C)C2)c1,"inconclusive: 3.98 µM [inhibitor, single point]",
COc1cc(C(=O)NC2CCN(c3cc(-c4ccc(F)cc4)[nH]n3)C2)cc(OC)c1OC (stereo unspecified),"inconclusive: 20 µM [inhibitor, partial curve]",
CN1[C@@H](CCC(=O)NCc2ccc(F)cc2)CNC(=O)[C@H]2NCC[C@H]21,"inconclusive: 31.6 µM [inhibitor, single point]",
COc1ccccc1-c1cccc(CN2CCCC(C(=O)N3CCCCC3)C2)c1 (stereo unspecified),inactive,
COc1ccc(NC(=O)CN2C(=O)NC(c3ccc(Cl)cc3)C3=C2COC3=O)c(OC)c1 (stereo unspecified),inactive,
COc1ccc(-c2cc3nc4c(c(=O)n3[nH]2)CN(C(=O)CN(C)S(=O)(=O)c2cnc[nH]2)CC4)cc1,"inconclusive: 7.08 µM [inhibitor, single point]",

SMILES,Potency,"activity change, negative = inhibition"
COc1ccc(NC(=O)Nc2cccc(-c3ccc(N4CCOCC4)nn3)c2)cc1Cl,"inconclusive: 3.55 µM [inhibitor, single point]",
CC(=O)N1Cc2ccccc2CC2(CCCN(CC3CCNC3)C2)C1 (stereo unspecified),"inconclusive: 39.8 µM [inhibitor, single point]",
Cc1cc(NC(=O)c2ccc3c(c2)N(C)C2CCCCCN2C3=O)ccc1Br (stereo unspecified),inactive,
CN(CC(=O)N1CCC(CCOc2ccc(F)cc2)C1)S(=O)(=O)c1cccs1 (stereo unspecified),"inconclusive: 39.8 µM [inhibitor, single point]",
CCCNC(=O)[C@@H]1CCCN1[C@@H](C(=O)NC)c1ccc(OC)cc1,"inconclusive: 39.8 µM [inhibitor, single point]",
COCCOC1CCN(C(=O)CCc2c[nH]c3ccccc23)CC1,"inconclusive: 14.1 µM [inhibitor, partial curve, poor fit]",
COC(=O)CNC(=O)C1c2ccccc2C(=O)N(CC(C)C)C12CCCCC2 (stereo unspecified),"inconclusive: 22.4 µM [inhibitor, single point]",
CC(C)c1nc(-c2ccc(OC3CCN(C(=O)C4(c5ccccc5)CC4)C3)cc2)no1 (stereo unspecified),inactive,
NC(=O)CCNC(=O)C1=C[C@@H](NC(=O)c2cccc(F)c2)[C@@H](O)[C@H](O)C1,"inconclusive: 6.31 µM [inhibitor, full curve, poor fit]",
CNC(=O)c1cccc(-n2ccnc2-c2ccc(C#CCCO)cc2)c1,"inconclusive: 4.47 µM [inhibitor, single point]",
CCCc1nnc(C[C@@H]2C[C@@H](C(C)C)[C@H](CN3CCN(CCO)CC3)C=C2C)o1,"inconclusive: 44.7 µM [inhibitor, single point]",
CN1CCN(C[C@@H]2CN(C(=O)c3ccc4ccccc4c3)C[C@@H]2CO)CC1,,inconclusive: -30.7% [inhibitor]
O=C(NCc1ccccc1Cl)c1nc2cccnc2n(CCc2ccccc2)c1=O,inactive,
CC1CCN(c2cc(N3CCN(C)CC3)ccc2NC(=O)c2cc(C#N)c[nH]2)CC1,"inconclusive: 12.2 µM [inhibitor, partial curve]",
OCC1(CCc2ccccc2)CCNCC1,inactive,
O=c1cc(CN2CCOCC2)occ1OCCCCCSc1ccnc2cc(C(F)(F)F)ccc12,"inconclusive: 10 µM [inhibitor, partial curve, poor fit]",
CC(C)N1C(=O)C2(CCCC2)C1C(=O)NCC1CCCCC1 (stereo unspecified),"inconclusive: 0.708 µM [inhibitor, full curve, poor fit]",
CCOCc1nc(C2CCCN(C(=O)NCc3ccc(F)cc3)C2)no1 (stereo unspecified),inactive,
Cn1nccc1C(=O)N1C[C@@H](Oc2ccccc2)C[C@@H]1C(=O)N1CCOCC1,"inconclusive: 39.8 µM [inhibitor, single point]",
